This note sets out measurements from a collection of fitness landscapes (doi:10.1126/science.1257360).

To fix the notation:
B1: PhoQ; a variant is named by its letters at X, in order, P23837 (parent)
chain: MKKLLRLFFPLSLRVRFLLATAAVVLVLSLAYGMVALIGYSVSFDKTTFRLLRGESNLFYTLAKWENNKLHVELPENIDKQSPTMTLIYDENGQLLWAQRDVPWLMKMIQPDWLKSNGFHEIEADVNDTSLLLSGDHSIQQQLQEVREDDDDAEMTHSVAVNVYPATSRMPKLTIVVVDTIPVELKSSYMVWSWFIYVLSANLLLVIPLLWVAAWWSLRPIEALAKEVRELEEHNRELLNPATTRELTSLVRNLNRLLKSERERYDKYRTTLTDLTHSLKTPLXXLQXXLRSLRSEKMSVSDAEPVMLEQISRISQQIGYYLHRASMRGGTLLSRELHPVAPLLDNLTSALNKVYQRKGVNISLDISPEISFVGEQNDFVEVMGNVLDNACKYCLEFVEISARQTDEHLYIVVEDDGPGIPLSKREVIFDRGQRVDTLRPGQGVGLAVAREITEQYEGKIVAGESMLGGARMEVIFGRQHSAPKDE

The other results are listed elsewhere or left out. Bounds are passed on as bounds.

The assay covers variants of B1. The assay can be described thus: enrichment ratio after two sorts for PhoP signalling (ratio (wild type AVST 3.29)); higher = more functional. Conditions: with PhoP (E. coli).
As for HCTI, the enrichment ratio is ≤ 0.25. For NWII, the enrichment ratio was ≤ 0.25.

Take ESEY: the enrichment ratio is ≤ 0.25.

Take NYKS: the enrichment ratio is ≤ 0.25. Next, ELGW: ≤ 0.25. Next, EGEI: ≤ 0.25; RVVT: ≤ 0.25; SCIM: 3.17.

Turning to YPSQ, the enrichment ratio is ≤ 0.25. Next, FYDF: ≤ 0.25; ALYA: ≤ 0.25; EDNT: ≤ 0.25.

HETP: the enrichment ratio was ≤ 0.25.

As for PVEA, the enrichment ratio was ≤ 0.25.

Take WMKH: the enrichment ratio was ≤ 0.25. For YCAP, the enrichment ratio is ≤ 0.25.

NGPY: the enrichment ratio is ≤ 0.25. Next, YQMV: ≤ 0.25. Next, HDFC: ≤ 0.25. On to TVIL, for which the enrichment ratio was ≤ 0.25. TFQE: the enrichment ratio is ≤ 0.25.

Consider SQPE, for which the enrichment ratio is ≤ 0.25. With SGYE, the enrichment ratio is ≤ 0.25. Next, DFFA: ≤ 0.25; MASP: ≤ 0.25; HYMR: ≤ 0.25. As for DPWP, the enrichment ratio was ≤ 0.25. The same measure for DEIC: ≤ 0.25; for TIKK: ≤ 0.25. The same measure for QIGG: 6.19; for HLMP: ≤ 0.25. YWFF: the enrichment ratio was ≤ 0.25. Consider KLNH, for which the enrichment ratio was ≤ 0.25. On to WMVV, for which the enrichment ratio is ≤ 0.25. The same measure for AQPK: ≤ 0.25. The same measure for QFVP: ≤ 0.25.

With SPLM, the enrichment ratio was ≤ 0.25. The same measure for PSMM: ≤ 0.25. Next, LCTK: ≤ 0.25; SAVV: 3.14. Take GNLG: the enrichment ratio worked out at 5.07. The same measure for WSCN: ≤ 0.25; for KSRD: ≤ 0.25; for HSST: ≤ 0.25. Turning to YQNP, the enrichment ratio was ≤ 0.25. The same measure for HIKH: ≤ 0.25; for KDAH: ≤ 0.25. The same measure for MMET: ≤ 0.25. For the variant VDVY, the enrichment ratio is ≤ 0.25. For the variant KPNH, the enrichment ratio is ≤ 0.25. Next, RGVC: ≤ 0.25. As to QFTA, the enrichment ratio is ≤ 0.25. Next, ARCV: 2.86; LINI: ≤ 0.25. On to MRSR, for which the enrichment ratio is ≤ 0.25. Turning to NYDM, the enrichment ratio was ≤ 0.25. Next, VRNE: ≤ 0.25; DIGD: ≤ 0.25. Regarding LGHE, the enrichment ratio was ≤ 0.25. Consider AFFF, for which the enrichment ratio was ≤ 0.25. The same measure for VCFI: ≤ 0.25; for HSMD: ≤ 0.25; for GSKH: ≤ 0.25.

IHDR: the enrichment ratio is ≤ 0.25. Next, WHAQ: ≤ 0.25; NRNC: ≤ 0.25; RHTN: ≤ 0.25. Next, PNRN: ≤ 0.25; FRMW: ≤ 0.25; LHYW: ≤ 0.25. The same measure for CLLY: ≤ 0.25. With ANWN, the enrichment ratio is ≤ 0.25. MCHG: the enrichment ratio is ≤ 0.25. On to SYKK, for which the enrichment ratio was ≤ 0.25.

Regarding MLSA, the enrichment ratio was ≤ 0.25. Next, QFYI: ≤ 0.25. Next, NNTG: ≤ 0.25; ETSS: ≤ 0.25. For the variant DGID, the enrichment ratio is ≤ 0.25.

Consider NEMS, for which the enrichment ratio is ≤ 0.25.

Turning to PHQG, the enrichment ratio was ≤ 0.25. Regarding YLGR, the enrichment ratio was ≤ 0.25. As to RRCE, the enrichment ratio is ≤ 0.25. Next, VKLP: ≤ 0.25; VWLE: ≤ 0.25; LWCP: ≤ 0.25. Next, PEVR: ≤ 0.25. Next, NTRN: ≤ 0.25.

Consider DLMD, for which the enrichment ratio was ≤ 0.25.

Turning to WYIW, the enrichment ratio was ≤ 0.25.

For SPDI, the enrichment ratio is ≤ 0.25. The same measure for FILQ: 11.5; for MQNC: ≤ 0.25; for FHCG: ≤ 0.25. The same measure for KDHC: ≤ 0.25; for NYKC: ≤ 0.25; for FHSA: ≤ 0.25. The same measure for VYNC: ≤ 0.25; for FDRN: ≤ 0.25; for YWVR: ≤ 0.25. As for DKIW, the enrichment ratio is ≤ 0.25.

YILP: the enrichment ratio is ≤ 0.25. Regarding ACYP, the enrichment ratio was 2.64.

For LCRW, the enrichment ratio was ≤ 0.25. Next, KFCS: ≤ 0.25; LDYL: ≤ 0.25; RGSK: ≤ 0.25. Consider AGLI, for which the enrichment ratio was found to be 9.21.

MKDD: the enrichment ratio is ≤ 0.25. The same measure for HKAV: ≤ 0.25; for IYMC: ≤ 0.25. Turning to VWLV, the enrichment ratio was ≤ 0.25. Next, MDLP: ≤ 0.25. Take WPWM: the enrichment ratio was ≤ 0.25. For PFHY, the enrichment ratio was ≤ 0.25.

Consider GQGI, for which the enrichment ratio was ≤ 0.25.

Consider QDFN, for which the enrichment ratio is ≤ 0.25.

As to LGPF, the enrichment ratio is ≤ 0.25.

Regarding MAVV, the enrichment ratio is ≤ 0.25. The same measure for YWDE: ≤ 0.25.

On to KFNF, for which the enrichment ratio is ≤ 0.25. The same measure for MFTN: ≤ 0.25; for RIDE: ≤ 0.25; for AWRW: ≤ 0.25. On to IYQG, for which the enrichment ratio is ≤ 0.25.

For the variant FKCN, the enrichment ratio is ≤ 0.25. Consider TYNE, for which the enrichment ratio is ≤ 0.25. On to DNTN, for which the enrichment ratio is ≤ 0.25. The same measure for QCIV: ≤ 0.25; for MHKM: ≤ 0.25; for DWVE: ≤ 0.25. In the case of VVGA, the enrichment ratio is ≤ 0.25.

Take WDPM: the enrichment ratio was ≤ 0.25. The same measure for NFTP: ≤ 0.25; for RQNP: ≤ 0.25.

PVDC: the enrichment ratio is ≤ 0.25.

In the case of LPMI, the enrichment ratio is ≤ 0.25.

On to GQAF, for which the enrichment ratio was ≤ 0.25. HYRA: the enrichment ratio was ≤ 0.25. Regarding ITMY, the enrichment ratio is ≤ 0.25. For MYED, the enrichment ratio is ≤ 0.25.

Consider DCKK, for which the enrichment ratio is ≤ 0.25. The same measure for YCGV: ≤ 0.25.

As to TVCR, the enrichment ratio is 0.605. The same measure for MHGW: ≤ 0.25; for IRPT: ≤ 0.25; for DFAR: ≤ 0.25. Next, VHDP: ≤ 0.25; VFSM: ≤ 0.25. The same measure for RMIL: ≤ 0.25; for SCEQ: ≤ 0.25. On to KVNG, for which the enrichment ratio was ≤ 0.25. The same measure for EMYT: ≤ 0.25. As to TCGN, the enrichment ratio stood at 1.87. NPES: the enrichment ratio was ≤ 0.25.

For AITY, the enrichment ratio stood at 3.48. Next, VYIH: ≤ 0.25. The same measure for KAWS: ≤ 0.25; for RFPT: ≤ 0.25.

IRAK: the enrichment ratio was ≤ 0.25. Next, ESHF: ≤ 0.25; MRHR: ≤ 0.25.

For ENHS, the enrichment ratio was ≤ 0.25. NGCS: the enrichment ratio is ≤ 0.25.

In the case of NYQS, the enrichment ratio is ≤ 0.25.

In the case of SHMC, the enrichment ratio was ≤ 0.25.

As for FDMY, the enrichment ratio is ≤ 0.25. Next, SGCP: ≤ 0.25; QRHT: ≤ 0.25. As for DHVL, the enrichment ratio was ≤ 0.25. For VHFA, the enrichment ratio was ≤ 0.25.

With DQHW, the enrichment ratio is ≤ 0.25. QHIF: the enrichment ratio was ≤ 0.25. Next, IWMN: ≤ 0.25; RAWY: ≤ 0.25; VYVT: ≤ 0.25.

Regarding PYRW, the enrichment ratio was ≤ 0.25.

For QCSQ, the enrichment ratio is ≤ 0.25.

VAHS: the enrichment ratio was ≤ 0.25. Next, DCTR: ≤ 0.25. The same measure for GCCA: ≤ 0.25; for TETC: 24.3.

Turning to ALHY, the enrichment ratio is ≤ 0.25.

In the case of AHTV, the enrichment ratio is ≤ 0.25. The same measure for MCFA: ≤ 0.25; for QADR: ≤ 0.25; for AECT: 5.83.

With NRAS, the enrichment ratio is ≤ 0.25. Next, WQCT: ≤ 0.25. The same measure for PVTM: ≤ 0.25; for FRYT: ≤ 0.25; for PPFW: ≤ 0.25. As for KEFK, the enrichment ratio is ≤ 0.25. Take YFSQ: the enrichment ratio is ≤ 0.25.

Take YATC: the enrichment ratio is ≤ 0.25.
